This passage reports cell count results from the supplement of paper PMC4604168 (melanoma cell lines).

Molecules are shown by their SMILES. The list shows a part of the results. Repeats are few or missing, and single values can be far off.

Holding throughout (test): cell count relative to DMSO control; melanoma cells; higher = more viable cells
Common to all, as to settings: library dose: standard library concentration; 72 h

Assay [1] deals with 501Mel.
Assay [2] concerns A101D.
Assay [3] has as its system A2058.
The subject of assay [4] is A375.
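Also: cells treated in 1,536-well plates, then fixed and DAPI-stained, with nuclei counted from automated high-throughput microscope images.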

For the molecule `O=C(O)c1ccc2c(c1)nc(Nc1cccc(Cl)c1)c1ccncc12` + COc1ccc2c(c1)CCC1C2CCC2(C)C(NCCCCCCN3C(=O)C=CC3=O)CCC12 [U73122] (first compound 2 µM, partner dose 2 µM), the cell count was found to be 79.7% in assay [1], 45% in assay [2], 63.9% in assay [3] and 70.9% in assay [4].

In the case of `O=C(O)[C@@H]1[O][Sb](=[O])([O][Sb]2(=[O])[O][C@H]([C@H](O)CO)[C@H](O)[C@H](C(=O)O)[O]2)[O][C@H]([C@H](O)CO)[C@@H]1O` (stereo not given in full) [stibogluconate] + COc1ccc(-c2ccc3c(N4CCOCC4)nc(N4C[C@@H](C)O[C@@H](C)C4)nc3n2)cc1CO [KU0063794] (first compound 10 µM, partner dose 0.1 µM), the cell count in assay [1] worked out at 93.1%; in assay [2], 79%; in assay [3] it was 75%; in assay [4] it was 95.1%.

With `O=C(O)c1ccc2c(c1)nc(Nc1cccc(Cl)c1)c1ccncc12` + COc1cc(N2CCC(N3CCN(C)CC3)CC2)ccc1Nc1ncc(Cl)c(Nc2ccccc2S(=O)(=O)C(C)C)n1 [NVP-TAE684] (first compound 2 µM, partner dose 0.4 µM), the cell count in assay [1] was found to be 94.8%; in assay [2], 78.5%; in assay [3], 59.4%; in assay [4], 70.9%.

Consider `O=C(O)[C@@H]1[O][Sb](=[O])([O][Sb]2(=[O])[O][C@H]([C@H](O)CO)[C@H](O)[C@H](C(=O)O)[O]2)[O][C@H]([C@H](O)CO)[C@@H]1O` (stereo not given in full) [stibogluconate] + CCc1ccc(CCOc2ccc(CC3SC(=O)NC3=O)cc2)nc1 [pioglitazone] (first compound 10 µM, partner dose 10 µM), for which the cell count in assay [1] was 89.8%; in assay [2], 106%; in assay [3], 106%; in assay [4], 148%.

With `O=C(O)[C@@H]1[O][Sb](=[O])([O][Sb]2(=[O])[O][C@H]([C@H](O)CO)[C@H](O)[C@H](C(=O)O)[O]2)[O][C@H]([C@H](O)CO)[C@@H]1O` (stereo not given in full) [stibogluconate] + Oc1nc(-c2ccc(C(F)(F)F)cc2)nc2c1CSCC2 [XAV939] (first compound 10 µM, partner dose 10 µM), the cell count stood at 100% in assay [1], 79.8% in assay [2], 72.4% in assay [3] and 129% in assay [4].

In the case of `O=C(Nc1ccccc1)c1cc([N+](=O)[O-])ccc1Cl` + O=C1NC(=O)/C(=C/c2ccc(-c3ccc(F)cc3O)o2)S1 [AS252424] (first compound 10 µM, partner dose 5 µM), the cell count in assay [1] was determined as 79.2%; in assay [2], 88.4%; in assay [3] it was 103%; in assay [4] it was 175%.

For `O=C(Nc1cc(C(F)(F)F)cc(C(F)(F)F)c1)c1cc(Cl)ccc1O` + O=C1NC(=O)/C(=C/c2ccc(-c3ccc(F)cc3O)o2)S1 [AS252424] (first compound 0.08 µM, partner dose 5 µM), the cell count in assay [1] was 62.3%; in assay [2], 107%; in assay [3] it was 95.2%; in assay [4] it was 149%.

With `O=C(Nc1ccccc1)c1cc([N+](=O)[O-])ccc1Cl` + CC(C)CCN1c2nc(Nc3cc(F)c(O)c(F)c3)ncc2N(C)C(=O)C1C [BID1870] (first compound 10 µM, partner dose 1 µM), the cell count in assay [1] is 66.4%; in assay [2] it was 51.9%; in assay [3], 89%; in assay [4], 160%.

`O=C(Nc1cc(C(F)(F)F)cc(C(F)(F)F)c1)c1cc(Cl)ccc1O` + Oc1cc(-c2nc(-c3ccccc3)[nH]c2-c2ccncc2)ccc1Cl [L779450] (first compound 0.08 µM, partner dose 1 µM): the cell count worked out at 78.4% in assay [1], 68.7% in assay [2], 106% in assay [3] and 65.9% in assay [4].

With `O=C(Nc1cc(C(F)(F)F)cc(C(F)(F)F)c1)c1cc(Cl)ccc1O` + O=c1cc(-c2cccc3c2Sc2ccccc2S3)oc(N2CCOCC2)c1 [KU55933] (first compound 0.08 µM, partner dose 5 µM), the cell count amounted to 111% in assay [1], 106% in assay [2], 104% in assay [3] and 80.2% in assay [4].

On to `O=C(O)[C@@H]1[O][Sb](=[O])([O][Sb]2(=[O])[O][C@H]([C@H](O)CO)[C@H](O)[C@H](C(=O)O)[O]2)[O][C@H]([C@H](O)CO)[C@@H]1O` (stereo not given in full) [stibogluconate] + COc1ccc(COc2ccc(Cc3cnc(N)nc3N)cc2OC)cc1 [GW2580] (first compound 10 µM, partner dose 5 µM), for which the cell count in assay [1] amounted to 62.5%; in assay [2], 85.7%; in assay [3], 83.9%; in assay [4], 109%.

Take `O=C(O)c1ccc2c(c1)nc(Nc1cccc(Cl)c1)c1ccncc12` + O=C(O)C(=O)Nc1sc2c(c1C(=O)O)CCNC2 [TCS401] (first compound 2 µM, partner dose 8.33333 µM): the cell count came to 71.8% in assay [1], 84.1% in assay [2], 78.2% in assay [3] and 114% in assay [4].

Consider `O=C(Nc1cc(C(F)(F)F)cc(C(F)(F)F)c1)c1cc(Cl)ccc1O` + CCc1ccc(CCOc2ccc(CC3SC(=O)NC3=O)cc2)nc1 [pioglitazone] (first compound 0.08 µM, partner dose 10 µM), for which the cell count amounted to 94.7% in assay [1], 113% in assay [2], 123% in assay [3] and 121% in assay [4].

Regarding `O=C(O)[C@@H]1[O][Sb](=[O])([O][Sb]2(=[O])[O][C@H]([C@H](O)CO)[C@H](O)[C@H](C(=O)O)[O]2)[O][C@H]([C@H](O)CO)[C@@H]1O` (stereo not given in full) [stibogluconate] + CCCCCCCCCCCC1=C(O)C(=O)C=C(O)C1=O [Embelin] (first compound 10 µM, partner dose 6 µM), the cell count in assay [1] was found to be 92.8%; in assay [2], 85.3%; in assay [3], 97.4%; in assay [4], 101%.

With `O=C(Nc1cc(C(F)(F)F)cc(C(F)(F)F)c1)c1cc(Cl)ccc1O` + CCN(CC)CCCCNc1ncc2cc(-c3cc(OC)cc(OC)c3)c(NC(=O)NC(C)(C)C)nc2n1 [PD173074] (first compound 0.08 µM, partner dose 0.5 µM), the cell count came to 85.7% in assay [1], 102% in assay [2], 110% in assay [3] and 127% in assay [4].

In the case of `Cn1nnc2c(C(N)=O)ncn2c1=O` [temozolomide] + O=S(=O)(c1ccccc1)N(CC(F)(F)F)c1ccc(C(O)(C(F)(F)F)C(F)(F)F)cc1 [T0901317] (first compound 10 µM, partner dose 7 µM), the cell count in assay [1] stood at 73.6%; in assay [2], 78.5%; in assay [3], 39%; in assay [4] it was 104%.

For the molecule `O=C(Nc1cc(C(F)(F)F)cc(C(F)(F)F)c1)c1cc(Cl)ccc1O` + COc1cc(N2CCC(N3CCN(C)CC3)CC2)ccc1Nc1ncc(Cl)c(Nc2ccccc2S(=O)(=O)C(C)C)n1 [NVP-TAE684] (first compound 0.08 µM, partner dose 0.4 µM), the cell count was 81.5% in assay [1], 89.9% in assay [2], 60.8% in assay [3] and 98.9% in assay [4].

Turning to `Cn1nnc2c(C(N)=O)ncn2c1=O` [temozolomide] + CCCCCCCCCCCC1=C(O)C(=O)C=C(O)C1=O [Embelin] (first compound 10 µM, partner dose 6 µM), the cell count worked out at 96.4% in assay [1], 81.9% in assay [2], 59% in assay [3] and 79.7% in assay [4].

In the case of `Cc1cc(N2CCOCC2)cc2[nH]c(-c3c(NC[C@@H](O)c4cccc(Cl)c4)cc[nH]c3=O)nc12` + CCN(CC)CCCCNc1ncc2cc(-c3cc(OC)cc(OC)c3)c(NC(=O)NC(C)(C)C)nc2n1 [PD173074] (first compound 1 µM, partner dose 0.5 µM), the cell count was 48.8% in assay [1], 84% in assay [2], 82.3% in assay [3] and 128% in assay [4].

Turning to `Cc1cc(N2CCOCC2)cc2[nH]c(-c3c(NC[C@@H](O)c4cccc(Cl)c4)cc[nH]c3=O)nc12` + Cn1cc(/C=C2\C(=O)Nc3cccnc32)c2ccccc21 [GW441756] (first compound 1 µM, partner dose 2 µM), the cell count worked out at 60.9% in assay [1], 98.5% in assay [2], 105% in assay [3] and 185% in assay [4].

Turning to `O=C(O)c1ccc2c(c1)nc(Nc1cccc(Cl)c1)c1ccncc12` + N#Cc1c(O)c2c(-c3ccc(-c4ccccc4O)cc3)csc2[nH]c1=O [A769662] (first compound 2 µM, partner dose 10 µM), the cell count came out at 93.8% in assay [1], 91.8% in assay [2], 94% in assay [3] and 106% in assay [4].

For the molecule `O=C(O)c1ccc2c(c1)nc(Nc1cccc(Cl)c1)c1ccncc12` + Oc1nc(-c2ccc(C(F)(F)F)cc2)nc2c1CSCC2 [XAV939] (first compound 2 µM, partner dose 10 µM), the cell count in assay [1] was determined as 103%; in assay [2], 72.1%; in assay [3], 84.1%; in assay [4], 93.4%.

As to `O=C(O)c1ccc2c(c1)nc(Nc1cccc(Cl)c1)c1ccncc12` + O=C(Nc1ccccc1)c1cc([N+](=O)[O-])ccc1Cl [GW9662] (first compound 2 µM, partner dose 10 µM), the cell count turned out to be 50.6% in assay [1], 56% in assay [2], 76.8% in assay [3] and 102% in assay [4].

Consider `Cc1cc(N2CCOCC2)cc2[nH]c(-c3c(NC[C@@H](O)c4cccc(Cl)c4)cc[nH]c3=O)nc12` + O=S(=O)(c1ccccc1)N(CC(F)(F)F)c1ccc(C(O)(C(F)(F)F)C(F)(F)F)cc1 [T0901317] (first compound 1 µM, partner dose 7 µM), for which the cell count in assay [1] was 65.9%; in assay [2] it was 116%; in assay [3], 96.5%; in assay [4], 116%.

Consider `O=C(O)[C@@H]1[O][Sb](=[O])([O][Sb]2(=[O])[O][C@H]([C@H](O)CO)[C@H](O)[C@H](C(=O)O)[O]2)[O][C@H]([C@H](O)CO)[C@@H]1O` (stereo not given in full) [stibogluconate] + COc1ccc2c(c1)CCC1C2CCC2(C)C(NCCCCCCN3C(=O)C=CC3=O)CCC12 [U73122] (first compound 10 µM, partner dose 2 µM), for which the cell count in assay [1] amounted to 104%; in assay [2], 78.3%; in assay [3], 75.4%; in assay [4], 91.9%.

With `Cc1cc(N2CCOCC2)cc2[nH]c(-c3c(NC[C@@H](O)c4cccc(Cl)c4)cc[nH]c3=O)nc12` + COc1ccc2c(c1)CCC1C2CCC2(C)C(NCCCCCCN3C(=O)C=CC3=O)CCC12 [U73122] (first compound 1 µM, partner dose 2 µM), the cell count in assay [1] was 89.7%; in assay [2], 63.9%; in assay [3] it was 58%; in assay [4] it was 74.5%.

In the case of `Cn1nnc2c(C(N)=O)ncn2c1=O` [temozolomide] + Oc1cc(-c2nc(-c3ccccc3)[nH]c2-c2ccncc2)ccc1Cl [L779450] (first compound 10 µM, partner dose 1 µM), the cell count in assay [1] came out at 67.5%; in assay [2], 69.6%; in assay [3], 50.7%; in assay [4], 106%.

Regarding `O=C(Nc1cc(C(F)(F)F)cc(C(F)(F)F)c1)c1cc(Cl)ccc1O` + O=S(=O)(c1ccccc1)N(CC(F)(F)F)c1ccc(C(O)(C(F)(F)F)C(F)(F)F)cc1 [T0901317] (first compound 0.08 µM, partner dose 7 µM), the cell count in assay [1] came out at 61.1%; in assay [2] it was 64.1%; in assay [3], 88.2%; in assay [4] it was 98.7%.

Take `O=C(O)c1ccc2c(c1)nc(Nc1cccc(Cl)c1)c1ccncc12` + Nc1ccn([C@@H]2O[C@H](CO)[C@@H](O)C2(F)F)c(=O)n1 [gemcitabine] (first compound 2 µM, partner dose 0.002 µM): the results for the cell count in assay [2], in assay [3] and in assay [4] were 61.1%, 65.5% and 87%, respectively.
